# Among all 350,000 compounds or so, about 2,100 (0.6%) were called active. This list was built around the results that the source calls inconclusive (neither active nor inactive); the mix of calls is not that of the screen.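 Rule for the calls: active = activity change of -60% or lower, but not beyond a set lower limit; inconclusive = change between -60% and -40%, or beyond the set limit; inactive = change above -40%.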
# Molecular target: Relaxin receptor 1 (Homo sapiens) (UniProt Q9HBX9)
# Experiment: qHTS Assay for Antagonists of the Relaxin Receptor RXFP1
# Conditions: HEK293-RXFP1, relaxin-stimulated cAMP HTRF, 30 min; at 57.5 µM; hits give low values
# % is set by controls: 0 for no effect and ±100 for the full control effect.
# UniProt Q9HBX9, sequence (Q9HBX9 whole entry, looked up): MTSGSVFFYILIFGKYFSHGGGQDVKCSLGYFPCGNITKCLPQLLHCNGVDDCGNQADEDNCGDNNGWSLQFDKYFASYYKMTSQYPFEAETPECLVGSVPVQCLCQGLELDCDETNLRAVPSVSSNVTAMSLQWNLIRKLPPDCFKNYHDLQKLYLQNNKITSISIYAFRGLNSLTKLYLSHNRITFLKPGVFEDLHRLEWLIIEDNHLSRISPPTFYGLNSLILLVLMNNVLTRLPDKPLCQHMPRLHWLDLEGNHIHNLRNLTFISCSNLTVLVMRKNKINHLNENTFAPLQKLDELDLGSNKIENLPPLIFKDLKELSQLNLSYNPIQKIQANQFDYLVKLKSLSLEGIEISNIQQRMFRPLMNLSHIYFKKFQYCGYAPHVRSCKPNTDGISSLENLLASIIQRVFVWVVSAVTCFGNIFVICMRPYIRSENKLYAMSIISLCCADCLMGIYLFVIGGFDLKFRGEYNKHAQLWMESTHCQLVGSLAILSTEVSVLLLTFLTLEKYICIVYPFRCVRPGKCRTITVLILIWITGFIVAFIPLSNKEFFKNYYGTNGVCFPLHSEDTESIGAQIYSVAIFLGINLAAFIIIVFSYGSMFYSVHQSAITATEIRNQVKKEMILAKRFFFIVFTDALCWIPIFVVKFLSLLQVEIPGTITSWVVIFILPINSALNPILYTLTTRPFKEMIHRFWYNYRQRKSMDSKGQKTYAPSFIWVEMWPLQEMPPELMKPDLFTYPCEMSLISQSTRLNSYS
row,Compound,"activity change, negative = inhibition"
1,Cc1cccc(C(=O)OCC(=O)NC(=O)c2ccccc2)c1O,inactive: 8.36%
2,CCCN1CCN(CCCNC(=O)c2ccc(CS(=O)c3ccccc3C)o2)CC1 (stereo not given),inconclusive: -48.6%
3,O=C(COC(=O)c1cnccn1)c1ccc([N+](=O)[O-])cc1,inconclusive: -49.4%
4,O=C(CP(=O)(c1ccccc1)c1ccccc1)N/N=C/c1cc(Br)cc(Br)c1O,active: -70.9%
5,Cc1[nH]n(-c2ncc(-c3ccc(Cl)cc3)s2)c(=O)c1C(c1ccc(Cl)cc1)C(C#N)C#N (stereo not given),active: -87.8%
6,O=C(CCS(=O)(=O)c1nc(-c2cccs2)cc(C(F)(F)F)n1)Nc1cc(Br)ccc1O,active: -116%
7,Cc1ccc(CC(=O)Nc2ccc3c(c2)N(C)C(=O)c2ccccc2S3)cc1,inconclusive: -48.1%
8,Cc1ccc(Nc2sc(C(=O)c3ccccc3)c(N)c2C(=O)Nc2ccc(Cl)cc2)cc1,inconclusive: -49.3%
9,O=C(NC12CC3CC(CC(C3)C1)C2)c1ccc(Br)o1,active: -110%
10,CCOC(=O)N1CCN(c2cc(NCCC(=O)O)c3c4c(onc24)-c2ccccc2C3=O)CC1,inconclusive: -53%
11,Oc1ccc(/C=N/n2c(-c3ccco3)csc2=Nc2cccnc2)c(O)c1,active: -61.5%
12,NNC(=O)c1ccc(N2CCCCCC2)c([N+](=O)[O-])c1,inconclusive: -44.3%
13,Cc1cccc(C)c1OCC(=O)Nc1ccccc1C(F)(F)F,inactive: 0.779%
14,CN1CCc2c(sc(NC(=O)CSc3ccc(F)cc3)c2-c2nc3ccccc3s2)C1,active: -95.6%
15,Clc1ccccc1NN(Cc1ccncc1)c1ccccc1Cl,inconclusive: -41.5%
16,O=C(CCNC(=O)N1CC(=O)Nc2ccccc21)Nc1cccc(Cl)c1,inactive: -11%
17,O=C(N/N=C/c1cc(Br)ccc1O)C(=O)Nc1ccccc1OC(F)(F)C(F)F,inactive: -28.5%
18,O=C(C=Cc1cccc(Cl)c1)c1ccccc1,active: -61.6%
19,Cc1cc(C)c2nc(N(CCCN(C)C)C(=O)c3ccc4c(c3)OCCO4)sc2c1,inconclusive: -46.7%
20,Cc1cccc(NC(=O)c2ccc3c(O)c(S(=O)(=O)c4ccccc4)c(=O)[nH]c3c2)c1C,inactive: -10.2%
21,CC(C)NCC(O)(c1ccc(Cl)cc1)c1ccc(Cl)cc1,inconclusive: -42.1%
22,CCOc1cc(CNC2CCCC2)cc(Cl)c1OCc1ccc(F)cc1,inconclusive: -46.4%
23,Cc1ccc(S(=O)(=O)Nc2ccc(Cl)cc2)cc1NC(=O)c1cc2c(s1)CCCC2,inconclusive: -50.2%
24,COc1ccc(C2C(C#N)=C(N)OC3=C2C(=O)CC(C)(C)C3)cc1OC (stereo not given),active: -76%
25,CN(C(=O)/C=C/c1ccc2c(c1)OCO2)c1ccccc1,inactive: -7%
26,CC(NC(=O)/C(C#N)=C/c1ccco1)c1ccccc1 (stereo not given),inactive: -22.1%
27,O=C(NCc1ccc(F)cc1)C1(S(=O)(=O)c2ccc(Cl)cc2)CC1,inactive: 6.16%
28,COc1c(Cl)cc(C(=O)Nc2ccccc2C(=O)O)cc1Cl,inconclusive: -53.5%

row,Compound,"activity change, negative = inhibition"
1,O=C(NCC1CCCN1S(=O)(=O)c1cccs1)c1ccc(Cl)cc1 (stereo not given),inconclusive: -48.4%
2,Cc1c(C(=O)OCC2CCCO2)[nH]c2c1C(=O)CC(c1ccc(N(C)C)cc1)C2 (stereo not given),inactive: -35.4%
3,CC(C)=NNc1nc2c(c(=O)[nH]c(=O)n2C)n1CCc1ccccc1,active: -69.8%
4,Cc1cc(C)c(-c2csc(NC(=O)CCCc3nc4ccccc4c(=O)[nH]3)n2)c(C)c1,inconclusive: -40.9%
5,O=C(CCCn1c(=S)[nH]c2cc3c(cc2c1=O)OCO3)NCc1ccccc1Cl,active: -108%
6,CC(C)c1ccc(CNNC(=O)c2ccccc2)cc1,inactive: 3.66%
7,CCOc1ccc(C2=C(C(=O)CC)Sc3nncn3N2C(=O)CC)cc1,inconclusive: -42.2%
8,Clc1ccc(C(Cn2ccnc2)OCc2ccsc2Cl)c(Cl)c1 (stereo not given),inconclusive: -41%
9,CCOC(=O)c1ccccc1NC(=O)c1c(O)c2ccccc2n(CC)c1=O,inactive: -13.8%
10,O=C(Nc1ccccc1C(=O)O)c1ccc(NC(=O)C2CCCCC2)cc1,inconclusive: -48.8%
11,C=COC(=O)CSc1nc(-c2cccs2)ccc1C#N,inactive: -3.24%
12,Nc1cc(S(=O)(=O)N2CCOCC2)ccc1N1CCCCC1,inconclusive: -46.2%
13,O=C(COC(=O)/C=C/c1cccc(Cl)c1)Nc1ccc2[nH]c(=O)[nH]c2c1,inconclusive: -41%
14,CCOC(=O)c1ccc(NC(=O)C(=O)NCCc2ccc(OC)cc2)cc1,inconclusive: -52.5%
15,CCOC(=O)c1nnc(-c2ccccc2)o1,inactive: -0.791%
16,COc1ccc(C(C(=O)NCc2ccccc2)N(C(=O)c2snc(C(N)=O)c2N)c2ccccc2OC)cc1 (stereo not given),inconclusive: -45.6%
17,CCOC(=O)c1cc(S(=O)(=O)N2CCN(c3cc(Cl)ccc3C)CC2)[nH]n1,inconclusive: -43.9%
18,C=CCC1(CC=C)CCCN1C(=O)c1cc(COc2ccc(-n3cncn3)cc2)on1,inconclusive: -41.8%
19,COc1ccc(NC(=O)CC2C(=O)N(c3cccc(OC)c3)C(=O)N2Cc2cccnc2)cc1 (stereo not given),inactive: 2.72%
20,COc1ccc(S(=O)(=O)NCCc2cn3nc(C)c(C)nc3n2)cc1C,inactive: 3.38%
21,CSc1nnc(NC(=O)c2nc(S(=O)(=O)Cc3ccc(C)cc3)ncc2Cl)s1,inconclusive: -44.7%
22,CCOc1ccc(/C=C2\SC(=S)NC2=O)cc1OC,active: -72.9%
23,Cc1c(C(=O)NN2CCCCC2)nn(-c2ccc(Cl)cc2Cl)c1-c1ccc(Cl)cc1,active: -70.6%
24,COc1ccc(NC(=O)CN(C)C(=O)c2cc(-c3ccccc3)nc3ccccc23)cc1,inconclusive: -47.5%
25,CCCCCCOC(=O)NC(=N)c1ccc(NCc2nc3cc(C(=O)N(CCC(=O)OCC)c4ccccn4)ccc3n2C)cc1,inconclusive: -54.6%
26,COc1cccc(CNC(=O)c2oc3c(c2C)-c2nn(Cc4cccc(Cl)c4)cc2CC3)c1,active: -118%
27,Cn1c(CNC(=O)c2ccco2)nnc1SCC(=O)Nc1ccccc1Cl,inconclusive: -44.4%

# From PubChem BioAssay AID1259400 (National Center for Advancing Translational Sciences (NCATS), 2018)
